# The supplement of paper PMC3334620
# Over roughly 33,000 sequences, “E-score (-0.5 to 0.5)” has its median near -0.017; the highest 2% begin near 0.3. The list shows a part of the results.
# Target: T1, Sut1 (UniProt P53032)
# T1 sequence: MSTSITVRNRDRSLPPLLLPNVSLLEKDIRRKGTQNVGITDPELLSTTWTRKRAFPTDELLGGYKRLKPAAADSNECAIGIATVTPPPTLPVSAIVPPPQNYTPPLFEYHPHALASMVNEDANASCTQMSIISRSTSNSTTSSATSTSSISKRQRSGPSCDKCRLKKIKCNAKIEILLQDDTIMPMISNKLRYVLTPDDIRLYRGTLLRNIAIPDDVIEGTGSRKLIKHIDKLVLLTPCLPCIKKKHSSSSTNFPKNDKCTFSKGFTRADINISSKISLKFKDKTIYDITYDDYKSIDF
# Assay: PBM E-score (8-mer binding enrichment) (E-score (-0.5 to 0.5)); higher = stronger / more preferred TF binding; most listed sequences are background and not binding sites
# Settings: protein concentration: 200 nM; construct: GST-full length
# Method in brief: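 Masliner-normalised scans of fluorescent anti-GST signal were the basis for scoring. That signal came from GST-tagged yeast transcription factors applied at about 100-200 nM to double-stranded universal all-10-mer Agilent arrays on fresh or once-stripped slides. Each ungapped eight-base word, pooled with its reverse complement, received an E-score from the Universal PBM Analysis Suite.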
row,Sequence,PBM E-score
1,CGGCACTA,-0.0533
2,CCGCATAA,0.208
3,CCAAGAAG,-0.0549
4,ACGTAGAC,-0.198
5,GCCGACGA,-0.101
6,CGATTCGC,-0.0157
7,AGATGCGC,-0.273
8,GATTGCAA,0.0472
9,ACAGTAGC,-0.175
10,AGAGGTCC,0.111
11,CTGAGAGC,-0.0782
12,ACTATAAC,0.0883
13,CGAACTAC,0.046
14,CGTCATAC,0.12
15,GAGAGAGA,0.0032
16,GCCTTTAA,0.0866
17,AATTCGGC,-0.0483
18,AGACAACT,0.171
19,CTGCGCGA,-0.042
20,ATATGTGG,0.0773
21,GCTTCGAA,0.191
22,CTTCAGGC,-0.167
23,CTACCGTC,-0.0907
24,CTAGAGAG,-0.142
25,GTGTAAGA,0.105

row,Sequence,PBM E-score
1,GGAACGAA,0.107
2,ACCCCTTA,-0.0235
3,CAAGGGTG,-0.317
4,GAGGTGTA,-0.11
5,ATCATTCA,0.182
6,CGATTAGC,-0.182
7,AACGGATC,0.206
8,CGCTAGAG,-0.0478
9,GCGGATTA,-0.0369
10,TAAGGTAA,0.173
11,GCTGCAGC,-0.237
12,CGGGTTAC,-0.213
13,ACTTTGCT,0.0184
14,TCCTTTAA,0.108
15,GAGTAGCC,-0.11
16,CCCGCGTC,-0.0312
17,CGAGTGAC,-0.116
18,CCGCGAGC,0.0862
19,GCGTTACC,-0.158
20,AATGTGCC,-0.183
21,GGGAGACA,0.019
22,GTGTCGCA,-0.116
23,GCGACACA,-0.15
24,ATCGTAGG,-0.0546
25,CACCAGTC,-0.283

row,Sequence,PBM E-score
1,ACTGTGGG,-0.316
2,ATATAATG,0.222
3,CCGGGCAA,-0.119
4,CGTAGATA,0.0959
5,AGATTGCA,0.062
6,AGTGAAGC,0.0756
7,AAGGGGGC,-0.287
8,AAATCTGG,0.181
9,AGCTGAAC,-0.0852
10,GGTAAACA,0.098
11,TACTCGAA,0.068
12,AAAGCATC,0.0666
13,AAGTAAGG,0.108
14,AGTTCCCC,-0.142
15,AATCGACC,-2e-05
16,ATGGGGAA,-0.0455
17,GTGATCAC,-0.114
18,AATGGGTA,0.136
19,GCCCCTCC,-0.332
20,AGGACTTA,-0.0276
21,CCCAGTAC,-0.255
22,CCTGCATA,-0.155
23,AACGGTAT,-0.0944
24,CGCACAGC,-0.11
25,CGCGGATC,-0.0706

row,Sequence,PBM E-score
1,GACTAAAC,-0.0817
2,CAAGCGTG,-0.207
3,TCTATACA,0.111
4,GGTGGCCA,-0.171
5,GAAAGATA,0.161
6,AGTGGGCG,-0.0874
7,CGTACTAA,0.156
8,AATCCGAC,0.0553
9,ACCCCCCA,-0.275
10,CTGTACTC,0.00796
11,CGACTGAA,0.0692
12,ACAATGGA,0.162
13,ACGCTTCC,-0.043
14,CGCTCCGA,0.317
15,CGATTAGA,0.115
16,GGTACCTA,-0.043
17,AACCTCGT,-0.0398
18,ATCTTAGG,-0.239
19,AGACTAGG,-0.217
20,GTGGTGGA,-0.0882
21,CCCACAGA,-0.345
22,CGGATAGA,0.249
23,ATCAGATA,0.126
24,CAGAGACG,-0.0321
25,AGTGAGAG,-0.04

row,Sequence,PBM E-score
1,GCCCAGCA,-0.239
2,ACCGCGGA,0.253
3,ACTACCAA,0.0705
4,AGATAACC,0.0745
5,AGGAAGAA,0.0511
6,AGCTTTAC,0.101
7,CGTTGACA,-0.1
8,ACGGGGAC,-0.164
9,GAAAGAAC,0.209
10,ATATAGCC,-0.0379
11,CGGGTAGC,-0.177
12,GCCAGAAC,-0.147
13,CTTGGCAC,-0.046
14,ACGTTTGA,0.132
15,CTTGGCCA,-0.185
16,GCCTGTAA,-0.0718
17,ATATCTAC,0.173
18,CGGTTGTC,0.098
19,GCGACTAA,-0.0293
20,ATCTTCCA,0.0315
21,AGTTATAG,0.155
22,ATTACCTA,0.104
23,AGCTCGAC,0.0188
24,CCCAGGCC,-0.244
25,AAAGTGGC,0.0209

row,Sequence,PBM E-score
1,GATGGGTA,0.0208
2,AGTGTCCC,-0.086
3,AATAATCG,0.0995
4,ATCAGGTC,0.0613
5,GCTCATAA,-0.0972
6,TATAGCGA,-0.084
7,GGGCCATA,0.0165
8,CTTCGCAA,-0.0605
9,CACCAGCC,-0.162
10,CTTTGACA,-0.00233
11,ACGGATAC,0.212
12,ACCGGTAG,-0.0124
13,TCTCTTAA,0.181
14,AAACATGA,0.0715
15,GGCCTGGA,-0.251
16,CACAAGTC,-0.0924
17,CCGTCCCA,-0.0896
18,ATGCTCGA,-0.0121
19,ATGATAAT,0.273
20,AGTGTGGC,0.0458
21,ATGTGGCC,-0.301
22,CATTCCAG,-0.0621
23,GGAACCCA,-0.318
24,CATTATGG,0.0378
25,CGCATGGA,-0.162

row,Sequence,PBM E-score
1,CCTTCGCG,-0.0557
2,ATCTTGTC,-0.0588
3,CATTGTTA,0.101
4,CTCTCTGA,-0.212
5,CTAACCGA,0.0355
6,CTGGGCGC,-0.22
7,AGGATTGA,0.226
8,AGAACCAA,0.0688
9,ACCCAATC,0.0165
10,GACTGGCA,-0.185
11,CAATTGGG,-0.152
12,AGCAATCG,-0.0346
13,AACGCCAA,0.00932
14,GAGTGATA,0.13
15,CCCGCTCA,-0.307
16,ATGGCCGG,-0.0767
17,AGAAGGAG,-0.24
18,TGCTCTAA,-0.027
19,GATATATA,0.247
20,CGCTATGC,-0.224
21,AGGCGCAG,-0.269
22,AGGGAAAT,-0.0717
